Measured values: PubChem BioAssay AID1240 (Sanford-Burnham Center for Chemical Genomics, 2008)
The whole screen tested about 50,000 compounds, of which about 800 (1.6%) showed an effect of 50% or more. The list shows a part of the results.

The compounds below were run against Bcl-2-like protein 10 (Homo sapiens) (UniProt Q9HD36) (assay: Phenotype converters, Bcl-B/TR3 peptide binding displacement, primary biochemical FP (AID 1240;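 note: 0% = Bcl-B with tracer peptide and DMSO and 100% = tracer peptide lacking Bcl-B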)). Conditions: GST-Bcl-B / FITC-TR3 peptide fluorescence polarization; stronger effect = higher value; compound at 3.75 mg/L.
Sequence of UniProt Q9HD36 (Q9HD36 whole entry, looked up): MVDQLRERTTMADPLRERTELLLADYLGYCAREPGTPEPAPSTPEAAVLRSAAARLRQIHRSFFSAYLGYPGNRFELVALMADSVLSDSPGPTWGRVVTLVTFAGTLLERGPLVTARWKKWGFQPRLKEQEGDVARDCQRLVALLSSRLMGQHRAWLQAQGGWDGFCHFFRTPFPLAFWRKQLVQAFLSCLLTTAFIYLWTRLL

Compound	displacement [%]
COc1cccc(/C=N\N2CCN(c3ccccc3)CC2)c1OC	2.5
CCCOP(=O)(OCCC)C(Nc1ccc(Cl)cc1)c1ccc(Br)cc1 (stereo not given)	17.1
Cc1ccc(S(=O)(=O)N(Cc2ccccc2)c2ccccn2)cc1[N+](=O)[O-]	-9.3
O=C(Nc1ccc(Cl)cc1)C(=O)NC1CC1	0.3
CCOc1ccccc1NC(=O)CN(c1ccc(C)c(Cl)c1)S(C)(=O)=O	0
CCOC(=O)c1c(NC(=O)c2cccc(F)c2)sc(C(=O)Nc2ccc(OC)cc2OC)c1C	0.5
CCSC(C)CC1CC(=O)CC(=O)C1C(=O)OC (stereo not given)	3.7
O=C(Nc1c[nH]c(=O)[nH]c1=O)c1ccc2c(c1)C(=O)N(N1C(=O)c3ccccc3C1=O)C2=O	-1.6
COc1ccc(N/N=C(/C#N)C(=N)N2CCOCC2)cc1	3.7
CN1CCN(CCOCCOc2ccc(Cl)cc2)CC1	-7.3
CCC(SC1=NCCS1)C(=O)N1c2ccccc2Sc2ccccc21 (stereo not given)	-8.8
Cc1ccc(Cl)cc1NC(=O)c1c(-c2c(Cl)cccc2Cl)noc1C	-9.1
Cc1ccc(-n2c(SCCc3ccccc3)nc3sc4c(c3c2=O)CC(C)(C)OC4)cc1	6.5
COC(=O)c1c(NC(=O)COc2ccc(-c3ccc(C)cc3)cc2)sc2c1C(C(=O)OC)CC2 (stereo not given)	-8
CCOC(=O)C(=O)Nc1ccc([N+](=O)[O-])cc1OC	-0.6
COc1cccc2c1CC/C(=C\c1ccccc1)C2=O	15.5
CCOC(=O)c1sc(NC(=O)c2cnccn2)c(C(=O)OCC)c1C	1.1
CC(C)NC(=O)CN(c1ccc(Oc2ccccc2)cc1)S(C)(=O)=O	1.8
CC(C)CC(=O)NC(NC(=S)Nc1ccccc1Br)C(Cl)(Cl)Cl (stereo not given)	-3.4
Cc1c(N2C(=O)/C(=C/c3ccc(-c4ccccc4Cl)o3)SC2=S)c(=O)n(-c2ccccc2)n1C	34
COc1ccc(/C=C2\C(=O)NC(=O)N(c3cc(C)cc(C)c3)C2=O)c(OC)c1	9.5
O=c1c2c3c(sc2nc(SCc2ccc([N+](=O)[O-])cc2)n1-c1ccccc1)CCCC3	-6.8

Compound	displacement [%]
C/C(=N\NC(=O)c1cc(C(C)(C)C)[nH]n1)c1ccc2ccccc2c1	-9.4
CCCCOc1ccc(C(=O)O/N=C2/CCc3cc(OC)ccc32)cc1	2
NC(=O)c1ccc(NC(=O)c2sc3ccccc3c2Cl)cc1	5.2
O=C(Nc1ccc2nn(-c3ccc(F)cc3)nc2c1)c1ccc(Br)o1	49.5
COc1ccc(-c2cc(C(F)(F)F)n3nc(C(=O)Nc4ccccc4C(F)(F)F)cc3n2)cc1	6
Cc1c(C(=O)O)cccc1-n1c(C)ccc1C	85.4
Cc1cc(C)cc(OC(=O)C(C)N2C(=O)c3ccccc3C2=O)c1 (stereo not given)	1.9
O=C1c2ccc(C(c3ccc4c(c3)C(=O)N(c3ccccc3)C4=O)(C(F)(F)F)C(F)(F)F)cc2C(=O)N1c1ccccc1	3.3
CCOC(=O)c1ccc(NC(=O)/C=C/c2ccc(Cl)cc2)cc1	16.8
CCCOc1ccc(/C=C2\C(=O)NN(c3ccccc3)C2=O)cc1	14.7
COc1ccc(NC(=O)/C(=C/c2cccs2)NC(=O)c2ccc(C(C)(C)C)cc2)cc1	-8.7
CCn1c(SCC(=O)NN)nc2ccccc21	-15.2
COc1ccc(OC)c(NC(=O)c2cccc(C)c2)c1	7.8
COC(=O)CCC(=O)NCc1ccccc1	7.9
CCc1cc(C(=O)N/N=C/c2ccc(OC)c(O)c2)c2ccccc2n1	-1.3
COc1ccc2oc(=O)c(-c3ccc([N+](=O)[O-])cc3)cc2c1	-5.7
O=C(NC1CCCCC1)c1cccc(C(F)(F)F)c1	-3.7
COc1cccc(C(=O)N2CCN(C3CCCCC3OC)CC2)c1 (stereo not given)	-16.2
CCOC(=O)NC(Nc1cccc(F)c1)(C(F)(F)F)C(F)(F)F	-9.3
CCOc1cc(/C=C2\C(=O)N(c3ccc(S(N)(=O)=O)cc3)N=C2C)cc(Br)c1O	-25.9
CCOc1ccc(C2N(Cc3ccccc3)CCN2Cc2ccccc2)cc1	-8.4
O=C(Nc1ccc(F)c([N+](=O)[O-])c1)c1ccc(-c2ccc(Cl)cc2Cl)o1	13.5

Compound	displacement [%]
CC1(C)c2ccccc2N(CCO)C12C=Cc1cc(Br)ccc1O2 (stereo not given)	7.8
Cc1ccc(NC(=O)c2ccccc2C(F)(F)F)c(C)c1	11.3
CCOC(=O)C1=C(O)/C(=C/c2ccc(Cl)cc2Cl)SC1=Nc1ccccc1	-11.4
CCc1nnc(NC(=O)CCc2ccc(OC)cc2)s1	-4.4
COCCOC(=O)c1ccc(NC(=O)c2ccc(OC)cc2)cc1	-3.8
CC(=O)Oc1ccc(/C=N/NS(=O)(=O)c2ccccc2)cc1	2.9
C/C(=N\Nc1nc(C)cc(-c2ccccc2)n1)c1ccccc1	-9
CCOc1cc(C=O)ccc1OCc1ccccc1F	11.7
Cc1cc(C(F)(F)F)nn1CC(=O)Nc1sc2c(c1C#N)CCCC2	-4.9
CC(=O)/C=C(\C)N1N=C(c2ccccc2)CC1c1ccccc1 (stereo not given)	-19.9
COC(=O)c1sc(NC(=O)c2cccc(F)c2)c(C(=O)OC)c1C	5.1
Cc1nc(-c2ccc(Br)cc2)[nH]c(=O)c1C	7.4
C=CCNCCCCOc1ccc(Br)cc1	8.5
COc1ccc(-c2cc(-c3c(O)c(OC)c4occc4c3OC)[nH]n2)cc1OC	13.6
O=C(O)COc1ccccc1/C=N/NC(=O)/C(=C\c1ccc2c(c1)OCO2)NC(=O)c1ccccc1	3.6
C/C(=N\OC/C(O)=C(\C#N)c1nc2ccccc2[nH]1)c1ccc(Br)cc1	46.6
CS(=O)(=O)N1CCN(C(=O)c2cccs2)CC1	-10.7
Cc1cc(O)c(C(=O)c2ccccc2C(=O)O)cc1C	2.2
Cc1occc1C(=O)Nc1nc(-c2ccccc2)c(C)s1	-16
COc1ccc(N=CC2=C(O)CC(c3ccccc3)CC2=O)cc1OC (stereo not given)	-6.8
CC(C)Cc1cc(-c2ccc(Cl)cc2)c(C#N)c(N)n1	3
COc1cccc(C(O)c2nc3ccccc3n2C)c1 (stereo not given)	0.2

Compound	displacement [%]
CCOc1ccccc1NC(=O)C(N)=O	13.6
O=C(O)c1ccccc1SC1CC(=O)N(c2cccc(Cl)c2)C1=O (stereo not given)	-1
O=C(Nc1ccc(F)cc1)C1COc2ccccc2O1 (stereo not given)	-10
CCOc1ccc(/C=N/NC(=O)C(=O)N(CC)CC)cc1	0.3
CCN(C(=O)Cc1ccc(Cl)cc1)c1ccccc1C	1.4
CCOC(=O)c1cc(-c2ccco2)nc2ccc(Br)cc12	33.4
CS(=O)(=O)N(CC(=O)Nc1cccc2ccccc12)c1ccc(Cl)cc1	21.2
O=C(Cc1ccc(Br)cc1)NCc1ccccc1	4.5
COc1ccc(NC(=O)C2C3CCC(C3)C2C(=O)O)cc1OC (stereo not given)	-1.3
O=C1c2ccc([N+](=O)[O-])cc2C(=O)N1c1nccs1	1.6
O=C(CSc1ncccn1)NN=C1CCCC1	5.3
COc1ccc(S(=O)(=O)Nc2cc3c(C(C)=O)c(C)oc3c3ccccc23)cc1	-1.9
COc1ccccc1C(=O)Nc1ccc2oc(-c3ccncc3)nc2c1	135
CCOC(=O)c1c(C)nc(C)c(C(=O)OCC)c1-c1ccc(Br)cc1	3.9
COc1ccccc1CNC(=O)/C=C/c1ccc([N+](=O)[O-])cc1	9.6
CCOC(=O)C(=CNc1ccc(F)c(F)c1F)C(=O)OCC	3.1
Cc1ccc(/C(O)=C2\C(=O)C(=O)N(c3ccc(O)cc3)C2c2ccccc2)cc1 (stereo not given)	14.9
Cc1ccc(NS(=O)(=O)c2ccc3ccccc3c2)cc1Cl	12.3
COc1cc(C2C(C(=O)Nc3ccccc3C)=C(C)NC3=C2C(=O)CCC3)cc(OC)c1OC (stereo not given)	4.8
O=C(Nc1ccccc1I)C1CC(=O)N(c2ccc(Br)cc2)C1 (stereo not given)	-26
O=C1NC(=O)/C(=C\c2ccc(Cl)cc2Cl)S1	5.5
COc1ccc(OC)c(C=NN2CCN(Cc3ccc(C)cc3C)CC2)c1	13

Compound	displacement [%]
CC(C)c1ccc(/C=N/n2cnnc2)cc1[N+](=O)[O-]	11.1
CCCCN1C(=O)/C(=C/C=C/c2ccccc2)SC1=S	-0.6
CCOc1cc(C(=S)N2CCOCC2)cc(Br)c1OC(=O)c1cccc2ccccc12	-12.3
Cc1cc(C)n(C(=O)CNC(=O)c2ccccc2Cl)n1	8.3
O=C1C2C3C=CC(C3=C(c3ccccc3)c3ccccc3)C2C(=O)N1c1cccc(C(F)(F)F)c1 (stereo not given)	8.5
CCOC(=O)CSc1nc(N)nc(C)c1Br	2.8
Clc1ccc(SCCc2ccncc2)cc1Cl	1.9
Cc1ccc(S(=O)(=O)C(CC(=O)c2ccc(Cl)cc2)c2ccccc2)cc1 (stereo not given)	8
O=c1/c(=C/c2ccc(-c3ccc(Cl)cc3)o2)sc2nc3ccccc3n12	10.9
COc1cc(C2C(C(=O)OCc3ccccc3)=C(C)NC3=C2C(=O)CCC3)cc(Br)c1O (stereo not given)	8.4
O=c1c2c3c(sc2[nH]c(=S)n1-c1ccccc1)CCC3	-2.5
NNC(=O)c1cc(C2CC2)nc2ccc(Br)cc12	-4.7
O=C(NC(NC(=O)C(c1ccccc1)c1ccccc1)c1ccc(F)cc1)C(c1ccccc1)c1ccccc1	13.1
COC(=O)c1ccccc1NC(=O)CN(c1ccc(OC)cc1)S(=O)(=O)c1ccc(C)cc1	5.6
Cc1ccccc1NC(=O)c1c(NC(=O)c2cccs2)sc2c1CCCCC2	7.8
C=CCSC1=C(C#N)C2(CCCCC2)C(C#N)C(=O)N1 (stereo not given)	3.4
C/C(=N/NC(=O)c1ccccc1)c1ccc(F)cc1	-13.5
Cc1cc(NS(=O)(=O)c2ccc(Nc3nc(-c4cccs4)cs3)cc2)no1	5.4
COc1cc(NC(=O)c2cccc(Cl)c2)ccc1NC(=O)c1cc2ccccc2o1	16.4
O=C1/C(=C/c2ccc(Cl)cc2Cl)SC(=S)N1c1ccc(Br)cc1	30.5
O=C1C2ON(c3ccccc3)C(c3ccccc3)C2C(=O)N1Cc1ccccc1 (stereo not given)	5.9
Cc1c(-c2ccc(Cl)cc2Cl)nc2ccccc2c1C(=O)NCc1ccc2c(c1)OCO2	1.2
